{"source": "the supplement of paper PMC10600219", "note": "Where a name gives a salt, the structure may show the parent alone. The full ranking holds about 2,800 compounds; the median of “cell viability relative to vehicle” is about 0.98, and the lowest 2% start at about 0.45. This is one part of the list.", "data": [{"system": "NCI-H2228 alectinib-DTP", "assay": "cell viability relative to vehicle (fraction of vehicle); NCI-H2228 is an ALK-positive lung cancer line and DTP means drug-tolerant persister; higher = less growth inhibition", "conditions": "100 nM; treatment time 6 days", "how_it_was_run": "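NCI-H2228 parental cells and drug-tolerant persister cells were plated in 384-well plates; the persisters had been generated with 1000 nM of a targeted drug over 13 days. One day later, the 3114-agent TargetMol anti-cancer compound library was added at 100 nM, with DMSO serving as vehicle. ATP was measured 6 days after that using the CellTiter-Glo 3D Cell Viability Assay. Values are cell viability expressed relative to vehicle-treated cells.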", "values": [{"molecule": "C#CCN[C@@H]1CCc2ccccc21", "note": "[Rasagiline]", "cell viability": 1.05}, {"molecule": "CCc1cc2c(cc1N1CCC(N3CCOCC3)CC1)C(C)(C)c1[nH]c3cc(C#N)ccc3c1C2=O", "note": "[Alectinib]", "cell viability": 1.01}, {"molecule": "CCc1c2c(nc3ccc(O)cc13)-c1cc3c(c(=O)n1C2)COC(=O)[C@]3(O)CC", "cell viability": 0.263}, {"molecule": "O=C(NCC1(c2nc(-c3ccccc3)cs2)CCOCC1)c1cccc(-c2noc(C(F)(F)F)n2)c1", "cell viability": 0.89}, {"molecule": "Cc1ccc(NC(=O)c2ccc(CN3CCN(C)CC3)cc2)cc1Nc1nccc(-c2cccnc2)n1", "note": "[Imatinib Mesylate]", "cell viability": 1.01}, {"molecule": "Cc1ccc(NC(=O)c2ccc(CN3CCN(C)CC3)cc2)cc1Nc1nccc(-c2cccnc2)n1", "note": "[Imatinib]", "cell viability": 1.02}, {"molecule": "O=C(O)C(=O)O.[NH-][C@@H]1CCCC[C@H]1[NH-].[Pt+2]", "note": "[Oxaliplatin]", "cell viability": 1.15}, {"molecule": "COc1cc2c(cc1OC)CC(=O)N(CCCN(C)C[C@H]1Cc3cc(OC)c(OC)cc31)CC2", "note": "[Ivabradine hydrochloride]", "cell viability": 0.954}, {"molecule": "Cc1ccc(-c2cn3c4c(sc3n2)CCCC4)cc1", "note": "[Pifithrin-β hydrobromide]", "cell viability": 0.913}, {"molecule": "CC(C)=CCC[C@](C)(O)[C@H]1CC[C@]2(C)[C@@H]1[C@H](O)C[C@@H]1[C@@]3(C)CC[C@H](O)C(C)(C)[C@@H]3CC[C@]12C", "note": "[(20S)-Protopanaxadiol]", "cell viability": 0.908}, {"molecule": "CC(C)(C)OC(=O)c1ncn2c1C(C)(C)Nc1ccccc1-2", "cell viability": 1.12}, {"molecule": "CC(C)(O)c1cc(Nc2cc(Oc3cn(C4CC4)nc3C3CCOCC3)ccn2)ccn1", "cell viability": 1}, {"molecule": "CCOC(=O)c1cnc2ccc(-c3cncc(NS(=O)(=O)c4ccccc4)c3)cn12", "cell viability": 1}, {"molecule": "NC(=O)CCC(N)C(=O)O", "note": "(racemic) [DL-Glutamine]", "cell viability": 0.959}, {"molecule": "COc1cc2c(c(OC)c1OC)-c1c(cc3c(c1OC)OCO3)CC(C)C(C)C2", "note": "(configuration not stated) [Schizandrin B]", "cell viability": 0.955}, {"molecule": "c1cnc(N2CCN(Cc3ccc4c(c3)OCO4)CC2)nc1", "note": "[Piribedil]", "cell viability": 0.838}, {"molecule": "C[C@@H](Nc1cc(F)cc(F)c1)c1cc(C(=O)N(C)C)cc2c(=O)cc(N3CCOCC3)oc12", "cell viability": 0.804}, {"molecule": "CC1=C(C(=O)Nc2ccc3[nH]ncc3c2)C(c2ccc(F)cc2)NC(=O)N1", "note": "(configuration not stated)", "cell viability": 1.09}, {"molecule": "COC(=O)/C=C/c1cccc(N(Cc2ccc(-c3ccc(N(C)C)cc3)cc2)C(=O)C2CCCCC2)c1", "note": "[Fexaramine]", "cell viability": 0.993}, {"molecule": "COc1cc(C(=O)N2CCC(N3CCN(C)CC3)CC2)ccc1Nc1ncc2c(n1)N(C)c1ccccc1C(=O)N2C", "cell viability": 0.99}, {"molecule": "Clc1ccc(C(Cn2ccnc2)OCc2ccsc2Cl)c(Cl)c1", "note": "(configuration not stated) [Vagistat]", "cell viability": 1.15}, {"molecule": "CC1(C)O[C@H]2CC(=O)OC[C@]23[C@H]2CC[C@@]4(C)[C@H](c5ccoc5)OC(=O)[C@H]5O[C@]54[C@]2(C)C(=O)C[C@@H]13", "note": "[Limonin]", "cell viability": 0.968}, {"molecule": "CC/C(=C(\\c1ccc(O)cc1)c1ccc(OCCN(C)C)cc1)c1ccccc1", "note": "[4-Hydroxytamoxifen]", "cell viability": 0.815}, {"molecule": "CC12CCC(CC1=O)C2(C)C", "note": "[D-Camphor]", "cell viability": 1.14}, {"molecule": "CN[C@@H]1[C@@H](O[C@H]2O[C@H](CO)[C@@H](N)[C@H](O)[C@H]2O)OC2C[C@@H](N)[C@@H](O[C@H]3[C@H](O)[C@@H](O)[C@H](N)C[C@@H]3N)OC2[C@@H]1O", "note": "(some centres not stated) [Apramycin sulfate]", "cell viability": 1.09}, {"molecule": "CCN(CC)CCNc1ccc(C)c2sc3ccccc3c(=O)c12", "note": "[Lucanthone]", "cell viability": 0.888}, {"molecule": "C[C@H](N=C(NC#N)Nc1cccc2ncccc12)c1ccccc1", "cell viability": 1}, {"molecule": "Cc1cc(C)c(CNC(=O)c2cc(-c3ccc(CN4CCOCC4)cc3)cc3c2cnn3C2CCCC2)c(=O)[nH]1", "cell viability": 1.08}, {"molecule": "CCCCCCCCCCCCCCCCCCCCCCO", "note": "[n-Docosanol]", "cell viability": 1.01}, {"molecule": "NS(=O)(=O)c1ccc(NC2=CC(=O)c3ccccc3C2=O)cc1", "cell viability": 1.07}, {"molecule": "CC(=O)NC(Cc1ccccc1)C(=O)O", "note": "(configuration not stated) [Afalanine]", "cell viability": 0.984}, {"molecule": "CC(C)C[C@@H](C(=O)N[C@H](C(=O)OC1CCCC1)c1ccccc1)[C@H](O)C(=O)NO", "note": "[Tosedostat]", "cell viability": 0.959}, {"molecule": "CCCCCCOC(=O)NC(=N)c1ccc(NCc2nc3cc(C(=O)N(CCC(=O)OCC)c4ccccn4)ccc3n2C)cc1", "note": "[Dabigatran etexilate]", "cell viability": 1.14}, {"molecule": "NCCCC(=O)O", "note": "[4-Aminobutyric acid]", "cell viability": 1.08}, {"molecule": "Cc1c(-c2ccccc2)oc2c(C(=O)OCCN3CCCCC3)cccc2c1=O", "note": "[Flavoxate hydrochloride]", "cell viability": 1.21}, {"molecule": "CC[C@@](C)(Nc1ccnc(-c2c[nH]c3ncccc23)n1)C(=O)NCC(F)(F)F", "note": "[Decernotinib]", "cell viability": 0.997}, {"molecule": "O=C1C[C@@H](c2ccc(O)c(O)c2)Oc2cc(O)cc(O)c21", "note": "[Eriodictyol]", "cell viability": 1.19}, {"molecule": "NC(=O)c1cnc(N[C@@H]2CCCC[C@@H]2N)nc1Nc1cccc(-n2nccn2)c1", "cell viability": 0.887}, {"molecule": "NS(=O)(=O)c1cc2c(cc1Cl)NC(C(Cl)Cl)NS2(=O)=O", "note": "(configuration not stated) [Trichlormethiazide]", "cell viability": 1.05}, {"molecule": "COc1ccc(Cn2ccc3ccc(C(=O)NO)cc32)cc1", "cell viability": 0.969}, {"molecule": "C#Cc1cccc(Nc2ncnc3cc(OCCOC)c(OCCOC)cc23)c1", "note": "[Erlotinib]", "cell viability": 1.1}, {"molecule": "CC(C)[N+](C)(CCOC(=O)C1c2ccccc2Oc2ccccc21)C(C)C", "note": "[Propantheline bromide]", "cell viability": 1.23}, {"molecule": "CN1CCC[C@@H]1Cc1c[nH]c2ccc(CCS(=O)(=O)c3ccccc3)cc12", "note": "[Eletriptan HBr]", "cell viability": 1.07}, {"molecule": "N[C@@H](CO)C(=O)O", "note": "[serine]", "cell viability": 1.06}, {"molecule": "CCCCCCCCCCCCCC(=O)[O-].CCCCCCCCCCCCCC(=O)[O-].N[C@@H]1CCCC[C@H]1N.[Pt+2]", "note": "[Miriplatin]", "cell viability": 1.08}, {"molecule": "CN(C)CCC=C1c2ccccc2COc2ccccc21", "note": "[Doxepin hydrochloride]", "cell viability": 0.975}, {"molecule": "O=C(O)Cc1c[nH]c2ccc(O)cc12", "cell viability": 0.972}, {"molecule": "COCCNc1cc(NC(=O)N2CCCc3cc(CN4CCN(C)CC4=O)c(C=O)nc32)ncc1C#N", "note": "[Roblitinib]", "cell viability": 1.09}, {"molecule": "CC1=CC(=O)C(C(C)C)=CC1=O", "note": "[Thymoquinon]", "cell viability": 1}, {"molecule": "CC(=O)c1ccc2c(c1)c1cc(C(C)=O)ccc1n2CCNC(C)C", "note": "[CBL0137 hydrochloride]", "cell viability": 1.07}, {"molecule": "C[S+]([O-])c1ccc(-c2nc(-c3ccc(F)cc3)c(-c3ccncc3)[nH]2)cc1", "note": "(configuration not stated)", "cell viability": 0.986}, {"molecule": "O=C(/C=C/c1ccc(O)cc1)CC(=O)/C=C/c1ccc(O)cc1", "note": "[Bisdemethoxycurcumin]", "cell viability": 1.06}, {"molecule": "COc1cc2c(Oc3ccc(NC(=O)C4(C(=O)Nc5ccc(F)cc5)CC4)cc3F)ccnc2cc1OCCCN1CCOCC1", "note": "[Foretinib]", "cell viability": 0.882}, {"molecule": "Nc1ccccc1S(N)(=O)=O", "note": "[2-Aminobenzenesulfonamide]", "cell viability": 1.05}, {"molecule": "CC1=NN(c2ccccc2)C(=O)C1", "note": "[Edaravone]", "cell viability": 1.1}, {"molecule": "N#C/C(=C\\c1cn(-c2ccccc2)c2ccccc12)C(=O)O", "cell viability": 0.942}, {"molecule": "CCN(CC)CCNC(=O)c1cc(Cl)c(N)cc1OC", "note": "[Metoclopramide hydrochloride]", "cell viability": 1.13}, {"molecule": "CN1CCN(c2cc(-c3ccccc3)nc(N)n2)CC1", "cell viability": 1.09}, {"molecule": "CCCCCNC(=O)N1CCC(CN(Cc2ccc(Cl)cc2)Cc2ccc([N+](=O)[O-])s2)C1", "note": "(configuration not stated)", "cell viability": 0.856}, {"molecule": "Oc1ccc(/C=C/c2cc(O)cc(O)c2)cc1", "note": "[Resveratrol]", "cell viability": 0.907}, {"molecule": "Cc1ncc(CCCN(C)C)cc1Nc1ncc2c(n1)-c1ccc(C(F)(F)F)cc1NC(=S)C2", "cell viability": 0.677}, {"molecule": "CCN(CC)CCNC(=O)c1c(C)[nH]c(/C=C2\\C(=O)Nc3ccc(F)cc32)c1C", "note": "[Sunitinib Malate]", "cell viability": 0.987}, {"molecule": "COc1ccc([C@@H]2OC[C@H]3[C@@H]2CO[C@@H]3c2ccc3c(c2)OCO3)cc1OC", "note": "[Fargesin]", "cell viability": 1.11}, {"molecule": "OCCOCCN1CCN(Cc2cccc(Oc3ccccc3)c2)CC1", "cell viability": 1.12}, {"molecule": "C=C1C(=O)[C@]23[C@H](O)[C@H]1CC[C@H]2[C@@]12CO[C@]3(O)[C@@H](O)[C@@H]1C(C)(C)CC[C@@H]2O", "note": "[Oridonin]", "cell viability": 0.983}, {"molecule": "CCOc1cc2ncc(C#N)c(Nc3ccc(F)c(Cl)c3)c2cc1NC(=O)/C=C/CN(C)C", "note": "[Pelitinib]", "cell viability": 0.507}, {"molecule": "Cc1ncc(NC(=O)c2cccc(C(F)(F)F)c2)cc1-c1cnc(OC2CCOCC2)c(N2CCOCC2)c1", "cell viability": 0.969}, {"molecule": "Cc1cc(/C=C/C#N)cc(C)c1Nc1ccnc(Nc2ccc(C#N)cc2)n1", "note": "[Rilpivirine]", "cell viability": 0.883}, {"molecule": "O=S(=O)(NCCSSCCNS(=O)(=O)c1cc(Cl)ccc1Cl)c1cc(Cl)ccc1Cl", "cell viability": 0.965}, {"molecule": "CCOc1ccc(Nc2nc(-c3c(C)nc4ccccn34)cs2)cc1", "cell viability": 0.587}, {"molecule": "Cc1cc(=O)[nH]c(=S)[nH]1", "note": "[Methylthiouracil]", "cell viability": 1}, {"molecule": "CC[C@]1(O)C[C@H]2CN(CCc3c([nH]c4ccccc34)[C@@](C(=O)OC)(c3cc4c(cc3OC)N(C=O)[C@H]3[C@@](O)(C(=O)OC)[C@H](OC(C)=O)[C@]5(CC)C=CCN6CC[C@]43[C@@H]65)C2)C1", "note": "[Vincristine sulfate]", "cell viability": 0.679}, {"molecule": "NC[C@@H]1O[C@H](O[C@H]2[C@@H](O)[C@H](O[C@@H]3[C@@H](O)[C@H](N)C[C@H](N)[C@H]3O[C@H]3O[C@H](CO)[C@@H](O)[C@H](O)[C@H]3N)O[C@@H]2CO)[C@H](N)[C@@H](O)[C@@H]1O", "note": "[Paromomycin Sulfate]", "cell viability": 1.02}, {"molecule": "Nc1nc(CC(=O)Nc2ccc(CCNC[C@H](O)c3ccccc3)cc2)cs1", "note": "[Mirabegron]", "cell viability": 1.2}, {"molecule": "COCCNCc1ccc(-c2cc3nccc(Oc4ccc(NC(=O)C5(C(=O)Nc6ccc(F)cc6)CC5)cc4F)c3s2)nc1", "note": "[Sitravatinib]", "cell viability": 0.99}, {"molecule": "CN1[C@@H]2CC[C@H]1C[C@@H](OC(=O)c1c[nH]c3ccccc13)C2", "note": "[Tropisetron hydrochloride]", "cell viability": 0.887}, {"molecule": "CN[C@@H](C)C(=O)N[C@H]1CN(C(=O)CC(C)C)CC[C@H]2CC[C@@H](C(=O)NC(c3ccccc3)c3ccccc3)N2C1=O", "cell viability": 1.01}]}]}
